Changes are numbered by the printed parent chain; changes in the protein carry UniProt numbers. The list shows a part of the results.

To fix the notation:
T1: RBFOX1 RRM RbFoxmut (Fox-RRM*) (Homo sapiens, UniProt Q9NWB1 109-208, R118D;E147R;N151S;E152T)
T1 sequence: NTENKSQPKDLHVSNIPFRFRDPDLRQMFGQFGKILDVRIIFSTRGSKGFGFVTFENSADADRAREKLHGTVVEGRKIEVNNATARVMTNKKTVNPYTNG

B1: ACUAAUG (DNA:RNA)
RNA: GGGAGACCGGAAUUCAGAUUGUCCACUAAUGUUAAAUCCCGUCGUAGCCACCA
DNA 1: CAATCTGAATTCCGGTCTCCC
DNA 2: TGGTGGCTACGACGGGATT
B2: GCGAAGA (DNA:RNA)
RNA: B1 RNA with A25G, U27G, U30G, G31A
DNA 1: CAATCTGAATTCCGGTCTCCC
DNA 2: TGGTGGCTACGACGGGATT
B3: UGGGGCG (DNA:RNA)
RNA: B1 RNA with A25U, C26G, U27G, A28G, A29G, U30C
DNA 1: CAATCTGAATTCCGGTCTCCC
DNA 2: TGGTGGCTACGACGGGATT
B4: UGCCCCG (DNA:RNA)
RNA: B1 RNA with A25U, C26G, U27C, A28C, A29C, U30C
DNA 1: CAATCTGAATTCCGGTCTCCC
DNA 2: TGGTGGCTACGACGGGATT
B5: GGAACGC (DNA:RNA)
RNA: B1 RNA with A25G, C26G, U27A, A29C, U30G, G31C
DNA 1: CAATCTGAATTCCGGTCTCCC
DNA 2: TGGTGGCTACGACGGGATT
B6: AACGUUG (DNA:RNA)
RNA: B1 RNA with C26A, U27C, A28G, A29U
DNA 1: CAATCTGAATTCCGGTCTCCC
DNA 2: TGGTGGCTACGACGGGATT
B7: UACAGCA (DNA:RNA)
RNA: B1 RNA with A25U, C26A, U27C, A29G, U30C, G31A
DNA 1: CAATCTGAATTCCGGTCTCCC
DNA 2: TGGTGGCTACGACGGGATT
B8: AGAGGAC (DNA:RNA)
RNA: B1 RNA with C26G, U27A, A28G, A29G, U30A, G31C
DNA 1: CAATCTGAATTCCGGTCTCCC
DNA 2: TGGTGGCTACGACGGGATT
B9: CAACUGC (DNA:RNA)
RNA: GGGAGACCGGAAUUCAGAUUGUCCCAACUGCUUAAAUCCCGUCGUAGCCACCA
DNA 1: CAATCTGAATTCCGGTCTCCC
DNA 2: TGGTGGCTACGACGGGATT
B10: UGUCGCA (DNA:RNA)
RNA: B1 RNA with A25U, C26G, A28C, A29G, U30C, G31A
DNA 1: CAATCTGAATTCCGGTCTCCC
DNA 2: TGGTGGCTACGACGGGATT
B11: GUAUUAC (DNA:RNA)
RNA: B9 RNA with C25G, A26U, C28U, G30A
DNA 1: CAATCTGAATTCCGGTCTCCC
DNA 2: TGGTGGCTACGACGGGATT
B12: GAACACG (DNA:RNA)
RNA: B9 RNA with C25G, U29A, G30C, C31G
DNA 1: CAATCTGAATTCCGGTCTCCC
DNA 2: TGGTGGCTACGACGGGATT
B13: UGAAAAC (DNA:RNA)
RNA: B1 RNA with A25U, C26G, U27A, U30A, G31C
DNA 1: CAATCTGAATTCCGGTCTCCC
DNA 2: TGGTGGCTACGACGGGATT
B14: CUGAACG (DNA:RNA)
RNA: B1 RNA with A25C, C26U, U27G, U30C
DNA 1: CAATCTGAATTCCGGTCTCCC
DNA 2: TGGTGGCTACGACGGGATT
B15: UGCUGAG (DNA:RNA)
RNA: B1 RNA with A25U, C26G, U27C, A28U, A29G, U30A
DNA 1: CAATCTGAATTCCGGTCTCCC
DNA 2: TGGTGGCTACGACGGGATT
B16: AUCUUCA (DNA:RNA)
RNA: B1 RNA with C26U, U27C, A28U, A29U, U30C, G31A
DNA 1: CAATCTGAATTCCGGTCTCCC
DNA 2: TGGTGGCTACGACGGGATT
B17: UGAGCAU (DNA:RNA)
RNA: B9 RNA with C25U, A26G, C28G, U29C, G30A, C31U
DNA 1: CAATCTGAATTCCGGTCTCCC
DNA 2: TGGTGGCTACGACGGGATT
B18: CUUUGAA (DNA:RNA)
RNA: B1 RNA with A25C, C26U, A28U, A29G, U30A, G31A
DNA 1: CAATCTGAATTCCGGTCTCCC
DNA 2: TGGTGGCTACGACGGGATT
B19: CACAUAU (DNA:RNA)
RNA: B9 RNA with A27C, C28A, G30A, C31U
DNA 1: CAATCTGAATTCCGGTCTCCC
DNA 2: TGGTGGCTACGACGGGATT
B20: UCAGUGG (DNA:RNA)
RNA: B9 RNA with C25U, A26C, C28G, C31G
DNA 1: CAATCTGAATTCCGGTCTCCC
DNA 2: TGGTGGCTACGACGGGATT
B21: GCGUUAA (DNA:RNA)
RNA: B1 RNA with A25G, U27G, A28U, A29U, U30A, G31A
DNA 1: CAATCTGAATTCCGGTCTCCC
DNA 2: TGGTGGCTACGACGGGATT
B22: AUCUUGA (DNA:RNA)
RNA: B9 RNA with C25A, A26U, A27C, C28U, C31A
DNA 1: CAATCTGAATTCCGGTCTCCC
DNA 2: TGGTGGCTACGACGGGATT
B23: UAGGCAC (DNA:RNA)
RNA: B9 RNA with C25U, A27G, C28G, U29C, G30A
DNA 1: CAATCTGAATTCCGGTCTCCC
DNA 2: TGGTGGCTACGACGGGATT
B24: CAAGCCG (DNA:RNA)
RNA: B9 RNA with C28G, U29C, G30C, C31G
DNA 1: CAATCTGAATTCCGGTCTCCC
DNA 2: TGGTGGCTACGACGGGATT
B25: UUCUGGA (DNA:RNA)
RNA: B9 RNA with C25U, A26U, A27C, C28U, U29G, C31A
DNA 1: CAATCTGAATTCCGGTCTCCC
DNA 2: TGGTGGCTACGACGGGATT
B26: AGACUCA (DNA:RNA)
RNA: B9 RNA with C25A, A26G, G30C, C31A
DNA 1: CAATCTGAATTCCGGTCTCCC
DNA 2: TGGTGGCTACGACGGGATT
B27: AUGCUUU (DNA:RNA)
RNA: B1 RNA with C26U, U27G, A28C, A29U, G31U
DNA 1: CAATCTGAATTCCGGTCTCCC
DNA 2: TGGTGGCTACGACGGGATT
B28: CACGACU (DNA:RNA)
RNA: B9 RNA with A27C, C28G, U29A, G30C, C31U
DNA 1: CAATCTGAATTCCGGTCTCCC
DNA 2: TGGTGGCTACGACGGGATT
B29: CUCGUGC (DNA:RNA)
RNA: B9 RNA with A26U, A27C, C28G
DNA 1: CAATCTGAATTCCGGTCTCCC
DNA 2: TGGTGGCTACGACGGGATT
B30: CGAGAAU (DNA:RNA)
RNA: B9 RNA with A26G, C28G, U29A, G30A, C31U
DNA 1: CAATCTGAATTCCGGTCTCCC
DNA 2: TGGTGGCTACGACGGGATT
B31: ACAUGUA (DNA:RNA)
RNA: B1 RNA with U27A, A28U, A29G, G31A
DNA 1: CAATCTGAATTCCGGTCTCCC
DNA 2: TGGTGGCTACGACGGGATT

This assay addresses T1, RBFOX1 RRM RbFoxmut (Fox-RRM*). The assay is described as follows: EMSA; HiTS-Eq, 1 nM pool, 10 min; buffer printed only for the single-RNA assays: 10 mM Tris pH 7.5, 150 mM NaCl, 3.4 mM EDTA, 0.001% NP-40, 30 C. The following applies: tags: His6 N-terminal (pET28a); label: 5' 32P. The method in brief:
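Purified RbFox RRM (wild type or mutant) was equilibrated for 10 min in 50 µL with 1 nM of a 5′-radiolabelled pool of RNA with 7 randomized nucleotides, its flanks annealed to DNA oligonucleotides, across increasing protein concentrations. Free RNA was separated by 8% native PAGE, excised, reverse-transcribed, PCR-barcoded and sequenced on an Illumina HiSeq 2500. Relative association constants came from read-count changes of each variant against the control reaction, normalised to the cognate motif.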
(Mobility shift assays separate free from complexed probe on a gel.)
As to B1, the binding signal is 0.123 KA relative to UGCAUGU.
B2: the binding signal is 0.0742 KA relative to UGCAUGU.
To B3 belongs 0.161 KA relative to UGCAUGU; to B4, 0.0794 KA relative to UGCAUGU; to B5, 0.182 KA relative to UGCAUGU.
Next, B6: 0.129 KA relative to UGCAUGU; B7: 0.0901 KA relative to UGCAUGU; B8: 0.0764 KA relative to UGCAUGU.
To B9 belongs 0.0835 KA relative to UGCAUGU; to B10, 0.152 KA relative to UGCAUGU; to B11, 0.141 KA relative to UGCAUGU.
Turning to B12, the binding signal is 0.107 KA relative to UGCAUGU.
To B13 belongs 0.0648 KA relative to UGCAUGU.
Next, B14: 0.33 KA relative to UGCAUGU.
To B15 belongs 0.102 KA relative to UGCAUGU; to B16, 0.124 KA relative to UGCAUGU.
As for B17, the binding signal is 0.114 KA relative to UGCAUGU.
B18: the binding signal is 0.0969 KA relative to UGCAUGU.
To B19 belongs 0.118 KA relative to UGCAUGU.
Turning to B20, the binding signal is 0.101 KA relative to UGCAUGU.
To B21 belongs 0.0941 KA relative to UGCAUGU; to B22, 0.15 KA relative to UGCAUGU.
Take B23: the binding signal is 0.081 KA relative to UGCAUGU.
Take B24: the binding signal was 0.105 KA relative to UGCAUGU.
Next, B25: 0.0449 KA relative to UGCAUGU; B26: 0.102 KA relative to UGCAUGU; B27: 0.0895 KA relative to UGCAUGU.
Next, B28: 0.0872 KA relative to UGCAUGU; B29: 0.155 KA relative to UGCAUGU.
To B30 belongs 0.0898 KA relative to UGCAUGU; to B31, 0.2 KA relative to UGCAUGU.

The record behind these values is paper PMC9911399, “Two distinct binding modes provide the RNA-binding protein RbFox with extraordinary sequence specificity”.
